The supplement of paper PMC4967469

How the values were obtained:
Experiment in all cases: Viability of human cancer cell lines after 72 h of drug (GDSC screen)
[1] = compound: Cc1cccc(-c2[nH]c(C(C)(C)C)nc2-c2ccc3nccnc3c2)n1 [SB-525334]; settings: top dose 20 µM; top dose inferred
Method: (§1)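 Human cancer cell lines in 384-well plates, medium with 10% serum, drug for 72 h over a 256-fold dose range (nine 2-fold or five 4-fold steps up to the top dose). Adherent lines were fixed and stained with the nucleic acid dye Syto60, suspension lines read with resazurin; signal relative to control wells, capped at 0 and 100%. One two-parameter sigmoid per drug and line, fitted in a mixed model over all curves with the slope shared within a line.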

[2] = compound: NC(=O)c1ccc(N(C(N)=O)c2c(F)cccc2F)nc1-c1ccc(F)cc1F [VX-702]; settings: top dose 2 µM; top dose inferred
Method: as §1

[3] = compound: O=C(c1cc(Cc2n[nH]c(=O)c3ccccc23)ccc1F)N1CCN(C(=O)C2CC2)CC1 [Olaparib]
Method: as §1

[4] = compound: O=C1NC(=O)c2c1c(-c1ccccc1Cl)cc1[nH]c3ccc(O)cc3c21 [Wee1 inhibitor 681640]; settings: top dose 2 µM; top dose inferred
Method: as §1

[5] = compound: CC(C)=CC[C@@H](O)C1=CC(=O)c2c(O)ccc(O)c2C1=O [Shikonin]; settings: top dose 16 µM; top dose inferred
Method: as §1

[6] = compound: Cc1cc(N2CCOCC2)cc2[nH]c(-c3c(NC[C@@H](O)c4cccc(Cl)c4)cc[nH]c3=O)nc12 [BMS-536924]; settings: top dose 4 µM; screen: GDSC drug entry 1091; top dose inferred
Method: as §1

[7] = compound: Cc1ccc(-n2nc(C(C)(C)C)cc2NC(=O)Nc2ccc(OCCN3CCOCC3)c3ccccc23)cc1 [BIRB 0796]; settings: top dose 10 µM; top dose inferred
Method: as §1

[8] = top dose 5 µM, screen: GDSC drug entry 1017, top dose inferred
[9] = top dose 10 µM, screen: GDSC drug entry 1495

Cell Line	AUC [1]	IC50 [1]	AUC [2]	IC50 [2]	AUC [3, 8]	IC50 [3, 8]	AUC [3, 9]	IC50 [3, 9]	AUC [4]	IC50 [4]	AUC [5]	IC50 [5]	AUC [6]	IC50 [6]	AUC [7]	IC50 [7]
SKG-IIIa (cervix, adherent)	0.983	> 20 µM	0.983	> 2 µM	0.983	> 5 µM	0.918	> 10 µM	0.942	> 2 µM	0.688	4.06 µM	0.872	> 4 µM	0.98	> 10 µM
SNU-182 (liver, adherent)	0.974	> 20 µM	0.979	> 2 µM	0.986	> 5 µM	0.936	> 10 µM	0.968	> 2 µM	0.656	2.77 µM	0.892	> 4 µM	0.905	> 10 µM
SNU-423 (liver, adherent)	0.957	> 20 µM	0.979	> 2 µM	0.981	> 5 µM	0.944	> 10 µM	0.979	> 2 µM	0.337	0.325 µM	0.946	> 4 µM	0.928	> 10 µM
SNU-449 (liver, adherent)	0.902	> 20 µM	0.986	> 2 µM	0.986	> 5 µM	0.97	> 10 µM	0.979	> 2 µM	0.464	0.792 µM	0.921	> 4 µM	0.984	> 10 µM
SUIT-2 (pancreas, adherent)	0.516	1.39 µM	0.983	> 2 µM	0.966	> 5 µM	0.938	> 10 µM	0.92	> 2 µM	0.552	1.4 µM	0.923	> 4 µM	0.965	> 10 µM
SW13 (adrenal gland, adherent)	0.988	> 20 µM	0.987	> 2 µM	0.986	> 5 µM	0.977	> 10 µM	0.94	> 2 µM	0.508	1.05 µM	0.894	> 4 µM	0.983	> 10 µM
SW780 (bladder, adherent)	0.986	> 20 µM	0.986	> 2 µM	0.952	> 5 µM	0.942	> 10 µM	0.906	> 2 µM	0.411	0.555 µM	0.867	> 4 µM	0.95	> 10 µM
SW1417 (large intestine, adherent)	0.973	> 20 µM	0.986	> 2 µM	0.986	> 5 µM	0.976	> 10 µM	0.982	> 2 µM	0.467	0.801 µM	0.92	> 4 µM	0.966	> 10 µM

By IC50 is meant the dose at which the fit gives 50% viability; a limit (>, <) means that the fit lies beyond the doses tested. For AUC the same curve is integrated over the 256-fold range of doses and scaled to a fraction: 1 means no effect, lower means more sensitive. A top dose marked as inferred comes from the curve model; the source does not state it. For some assays here: Drugs with an entry number were screened twice under separate entries, and the two screens often disagree.
